# The supplement of paper PMC8728848
# The list shows a part of the results.
# B1: Epa9 (Candida glabrata), CAGL0A01386g (protein)
# chain: MGSSHHHHHHSSGLVPRGSHMDITPFAHYPRPEGCSSPPNAVSVGLHMDLYNYPYLYVKNPRTGFTNDTDSDADGETDGDSAGGIEGRAGQCWNPEYQDPNFPRYGYKKYGSFGSSDHVNGKISWDHNEFKEGCKPIMARLPTAYNYPAKITFSNFTMVLSGYFKPKSTGLYKFEIHADDFILFNFGSKNAFECCNREESIDNFGPYVAYAMWPNEADQELEVYLFEDSYYPIRLFYNNRDYHSKFMVGFYPPNTEEITYDFDGYLYMLDDTGNECKDSIRYKTVCDD
# Experiments:
# Assay in all cases: glycan array binding signal (z-score within array); higher = stronger binding
# Conditions in all cases: glycan notation: IUPAC condensed, linker removed
# [1] = biological target: Neu5Ac(a2-3)[GalNAc(b1-4)]Gal(b1-4)GlcNAc(b1-3)GalNAc
# Procedure, shortened: (§1)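 Glycan array data came from 3228 arrays in the Consortium for Functional Glycomics database, and only arrays with an available protein sequence were kept. Glycan names were put into IUPAC-condensed notation, and columns mapping to the same glycan were averaged. The binding signal is a within-array Z-score, averaged across arrays of one protein sequence run at different concentrations or buffers and across linkers. A negative Z-score can be read as non-binding.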
# [2] = biological target: Neu5Ac(a2-3)[Neu5Ac(a2-6)]GalNAc
# Procedure, shortened: as §1
# [3] = biological target: Neu5Ac(a2-6)Gal
# Procedure, shortened: as §1
# [4] = biological target: Neu5Ac(a2-6)Gal(b1-3)GlcNAc(b1-3)[Gal(b1-4)GlcNAc(b1-6)]Gal(b1-4)Glc
# Procedure, shortened: as §1
# [5] = biological target: Neu5Ac(a2-6)Gal(b1-4)Glc
# Procedure, shortened: as §1
# [6] = biological target: Neu5Ac(a2-6)Gal(b1-4)GlcNAc
# Procedure, shortened: as §1
# [7] = biological target: Neu5Ac(a2-6)Gal(b1-4)GlcNAc(b1-2)Man
# Procedure, shortened: as §1
# [8] = biological target: Neu5Ac(a2-6)Gal(b1-4)GlcNAc(b1-2)Man(a1-3)Man(b1-4)GlcNAc(b1-4)GlcNAc
# Procedure, shortened: as §1
# [9] = biological target: Neu5Ac(a2-6)Gal(b1-4)GlcNAc(b1-2)Man(a1-3)[Gal(b1-4)GlcNAc(b1-2)Man(a1-6)]Man(b1-4)GlcNAc(b1-4)GlcNAc
# Procedure, shortened: as §1
# [10] = biological target: Neu5Ac(a2-6)Gal(b1-4)GlcNAc(b1-2)Man(a1-3)[GlcNAc(b1-2)Man(a1-6)]Man(b1-4)GlcNAc(b1-4)GlcNAc
# Procedure, shortened: as §1
# [11] = biological target: Neu5Ac(a2-6)Gal(b1-4)GlcNAc(b1-2)Man(a1-3)[GlcNAc(b1-4)][Neu5Ac(a2-6)Gal(b1-4)GlcNAc(b1-2)Man(a1-6)]Man(b1-4)GlcNAc(b1-4)GlcNAc
# Procedure, shortened: as §1
# [12] = biological target: Neu5Ac(a2-6)Gal(b1-4)GlcNAc(b1-2)Man(a1-3)[Man(a1-6)]Man(b1-4)GlcNAc(b1-4)GlcNAc
# Procedure, shortened: as §1
# [13] = biological target: Neu5Ac(a2-6)Gal(b1-4)GlcNAc(b1-2)Man(a1-3)[Neu5Ac(a2-3)Gal(b1-4)GlcNAc(b1-2)Man(a1-6)]Man(b1-4)GlcNAc(b1-4)GlcNAc
# Procedure, shortened: as §1
# [14] = biological target: Neu5Ac(a2-6)Gal(b1-4)GlcNAc(b1-2)Man(a1-3)[Neu5Ac(a2-6)Gal(b1-4)GlcNAc(b1-2)Man(a1-6)]Man(b1-4)GlcNAc(b1-4)GlcNAc
# Procedure, shortened: as §1
# [15] = biological target: Neu5Ac(a2-6)Gal(b1-4)GlcNAc(b1-2)Man(a1-3)[Neu5Ac(a2-6)Gal(b1-4)GlcNAc(b1-2)Man(a1-6)]Man(b1-4)GlcNAc(b1-4)[Fuc(a1-6)]GlcNAc
# Procedure, shortened: as §1
# [16] = biological target: Neu5Ac(a2-6)Gal(b1-4)GlcNAc(b1-2)Man(a1-6)Man(b1-4)GlcNAc(b1-4)GlcNAc
# Procedure, shortened: as §1
# [17] = biological target: Neu5Ac(a2-6)Gal(b1-4)GlcNAc(b1-2)Man(a1-6)[Gal(b1-4)GlcNAc(b1-2)Man(a1-3)]Man(b1-4)GlcNAc(b1-4)GlcNAc
# Procedure, shortened: as §1
# [18] = biological target: Neu5Ac(a2-6)Gal(b1-4)GlcNAc(b1-2)Man(a1-6)[GlcNAc(b1-2)Man(a1-3)]Man(b1-4)GlcNAc(b1-4)GlcNAc
# Procedure, shortened: as §1
# [19] = biological target: Neu5Ac(a2-6)Gal(b1-4)GlcNAc(b1-2)Man(a1-6)[Man(a1-3)]Man(b1-4)GlcNAc(b1-4)GlcNAc
# Procedure, shortened: as §1
# [20] = biological target: Neu5Ac(a2-6)Gal(b1-4)GlcNAc(b1-2)[Neu5Ac(a2-6)Gal(b1-4)GlcNAc(b1-4)]Man(a1-3)[GlcNAc(b1-4)][Neu5Ac(a2-6)Gal(b1-4)GlcNAc(b1-2)[Neu5Ac(a2-6)Gal(b1-4)GlcNAc(b1-6)]Man(a1-6)]Man(b1-4)GlcNAc(b1-4)GlcNAc
# Procedure, shortened: as §1
# [21] = biological target: Neu5Ac(a2-6)Gal(b1-4)GlcNAc(b1-2)[Neu5Ac(a2-6)Gal(b1-4)GlcNAc(b1-4)]Man(a1-3)[GlcNAc(b1-4)][Neu5Ac(a2-6)Gal(b1-4)GlcNAc(b1-4)Man(a1-6)]Man(b1-4)GlcNAc(b1-4)GlcNAc
# Procedure, shortened: as §1
# [22] = biological target: Neu5Ac(a2-6)Gal(b1-4)GlcNAc(b1-2)[Neu5Ac(a2-6)Gal(b1-4)GlcNAc(b1-6)]Man(a1-6)[Neu5Ac(a2-6)Gal(b1-4)GlcNAc(b1-2)Man(a1-3)][GlcNAc(b1-4)]Man(b1-4)GlcNAc(b1-4)GlcNAc
# Procedure, shortened: as §1
# [23] = biological target: Neu5Ac(a2-6)Gal(b1-4)GlcNAc(b1-3)Gal(b1-3)GlcNAc
# Procedure, shortened: as §1
# [24] = biological target: Neu5Ac(a2-6)Gal(b1-4)GlcNAc(b1-3)Gal(b1-4)GlcNAc
# Procedure, shortened: as §1
# [25] = biological target: Neu5Ac(a2-6)Gal(b1-4)GlcNAc(b1-3)Gal(b1-4)GlcNAc(b1-2)Man(a1-3)[Neu5Ac(a2-6)Gal(b1-4)GlcNAc(b1-3)Gal(b1-4)GlcNAc(b1-2)Man(a1-6)]GalNAc
# Procedure, shortened: as §1
# [26] = biological target: Neu5Ac(a2-6)Gal(b1-4)GlcNAc(b1-3)Gal(b1-4)GlcNAc(b1-3)Gal(b1-4)GlcNAc
# Procedure, shortened: as §1
# [27] = biological target: Neu5Ac(a2-6)Gal(b1-4)GlcNAc(b1-3)Gal(b1-4)GlcNAc(b1-3)Gal(b1-4)GlcNAc(b1-2)Man(a1-3)[Neu5Ac(a2-6)Gal(b1-4)GlcNAc(b1-3)Gal(b1-4)GlcNAc(b1-3)Gal(b1-4)GlcNAc(b1-2)Man(a1-6)]GalNAc
# Procedure, shortened: as §1
# [28] = biological target: Neu5Ac(a2-6)Gal(b1-4)GlcNAc(b1-3)Gal(b1-4)GlcNAc(b1-3)GalNAc
# Procedure, shortened: as §1
# [29] = biological target: Neu5Ac(a2-6)Gal(b1-4)GlcNAc(b1-3)Gal(b1-4)GlcNAc(b1-3)[Neu5Ac(a2-6)Gal(b1-4)GlcNAc(b1-3)Gal(b1-4)GlcNAc(b1-6)]GalNAc
# Procedure, shortened: as §1
# [30] = biological target: Neu5Ac(a2-6)Gal(b1-4)GlcNAc(b1-3)Gal(b1-4)GlcNAc(b1-6)[Gal(b1-3)]GalNAc
# Procedure, shortened: as §1
# [31] = biological target: Neu5Ac(a2-6)Gal(b1-4)GlcNAc(b1-3)Gal(b1-4)[Fuc(a1-3)]GlcNAc(b1-3)Gal(b1-4)[Fuc(a1-3)]GlcNAc
# Procedure, shortened: as §1
# [32] = biological target: Neu5Ac(a2-6)Gal(b1-4)GlcNAc(b1-3)GalNAc
# Procedure, shortened: as §1
# [33] = biological target: Neu5Ac(a2-6)Gal(b1-4)GlcNAc(b1-3)[Neu5Ac(a2-6)Gal(b1-4)GlcNAc(b1-6)]GalNAc
# Procedure, shortened: as §1
# [34] = biological target: Neu5Ac(a2-6)Gal(b1-4)GlcNAc(b1-6)GalNAc
# Procedure, shortened: as §1
# [35] = biological target: Neu5Ac(a2-6)Gal(b1-4)GlcNAc(b1-6)[Gal(b1-3)GlcNAc(b1-3)]Gal(b1-4)Glc
# Procedure, shortened: as §1
# [36] = biological target: Neu5Ac(a2-6)Gal(b1-4)GlcNAc(b1-6)[Gal(b1-3)]GalNAc
# Procedure, shortened: as §1
# [37] = biological target: Neu5Ac(a2-6)Gal(b1-4)GlcNAc6S
# Procedure, shortened: as §1
# [38] = biological target: Neu5Ac(a2-6)GalNAc
# Procedure, shortened: as §1
binder,measurement,setting,value
B1,glycan array binding signal (z-score),[1],-0.443
same,glycan array binding signal (z-score),[2],-0.46
same,glycan array binding signal (z-score),[3],-0.398
same,glycan array binding signal (z-score),[4],0.392
same,glycan array binding signal (z-score),[5],-0.436
same,glycan array binding signal (z-score),[6],-0.397
same,glycan array binding signal (z-score),[7],-0.458
same,glycan array binding signal (z-score),[8],-0.392
same,glycan array binding signal (z-score),[9],-0.161
same,glycan array binding signal (z-score),[10],-0.419
same,glycan array binding signal (z-score),[11],-0.416
same,glycan array binding signal (z-score),[12],-0.06
same,glycan array binding signal (z-score),[13],-0.408
same,glycan array binding signal (z-score),[14],-0.324
same,glycan array binding signal (z-score),[15],-0.442
same,glycan array binding signal (z-score),[16],-0.439
same,glycan array binding signal (z-score),[17],0.222
same,glycan array binding signal (z-score),[18],-0.479
same,glycan array binding signal (z-score),[19],-0.467
same,glycan array binding signal (z-score),[20],-0.367
same,glycan array binding signal (z-score),[21],-0.431
same,glycan array binding signal (z-score),[22],-0.428
same,glycan array binding signal (z-score),[23],-0.133
same,glycan array binding signal (z-score),[24],-0.223
same,glycan array binding signal (z-score),[25],0.69
same,glycan array binding signal (z-score),[26],0.022
same,glycan array binding signal (z-score),[27],-0.172
same,glycan array binding signal (z-score),[28],-0.082
same,glycan array binding signal (z-score),[29],-0.112
same,glycan array binding signal (z-score),[30],0.4
same,glycan array binding signal (z-score),[31],-0.061
same,glycan array binding signal (z-score),[32],-0.035
same,glycan array binding signal (z-score),[33],-0.357
same,glycan array binding signal (z-score),[34],-0.438
same,glycan array binding signal (z-score),[35],-0.304
same,glycan array binding signal (z-score),[36],0.562
same,glycan array binding signal (z-score),[37],-0.431
same,glycan array binding signal (z-score),[38],-0.477
